{"source": "PubChem BioAssay AID504832", "about": "(National Center for Advancing Translational Sciences (NCATS), 2011)", "note": "Hit rate of the full screen: of about 310,000 compounds, about 18,000 (5.8%) were called active. The shares of active, inactive and inconclusive entries below differ from those in the screen. Calls follow the shape of the dose curve; as a rule, active = well fitted inhibition curve with a large enough effect; inconclusive = small, poorly fitted or top-dose-only effect, or another doubt; inactive = no such curve, though single readings can be large or run the other way. No potency is given beside an inconclusive call; the fits are too rough. % is scaled to controls: 0 for no effect and ±100 for the full control effect; potency is read from the fitted curve at half-maximal effect; tags tell the direction and shape of the fitted curve."}
{"experiment": "Primary qHTS for delayed death inhibitors of the malarial parasite plastid, 48 hour incubation", "conditions": "P. falciparum luciferase growth in erythrocytes; series mostly up to 28.7 µM; activity change, negative = inhibition: at the top concentration", "procedure,_shortened": "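Luciferase-expressing P. falciparum in infected erythrocytes (2% hematocrit, 0.1% parasitemia final) in RPMI 1640/0.5% Albumax were exposed to compound for 48 hours at 37 C, 5% CO2; growth read as luminescence.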"}
{"smiles": "COc1ccc2c(C)nc(N/C(N)=N/S(=O)(=O)c3ccc(C)cc3)nc2c1", "Potency": "inconclusive [inhibitor, single point]"}
{"smiles": "O=C(COc1ccc(Br)cc1)NCCCn1ccnc1", "activity change, negative = inhibition": "inactive: -5.19%"}
{"smiles": "CN(C)CCCN=Cc1c(O)n(Cc2ccccc2)c(=O)c2ccccc12", "Potency": "inconclusive [inhibitor, single point]"}
{"smiles": "O=C(N/N=C/c1ccc(OCc2ccc(F)cc2)cc1)c1ccccc1", "Potency": "active: 1.17 µM"}
{"smiles": "Cc1cccc(NC(=O)C2CCN(S(=O)(=O)c3c(C)nn(C)c3C)CC2)n1", "activity change, negative = inhibition": "inactive: 9%"}
{"smiles": "COC(=O)CCCC1=CC2=C(c3ccccc3)C(=O)C(C)(OC(=O)C3CCCC3)C(=O)C2=CN1C1CC1", "note": "(configuration not stated)", "Potency": "inconclusive [inhibitor, single point]"}
{"smiles": "CC(=O)c1cccc(NC(=O)COC(=O)c2ccc(S(C)(=O)=O)c([N+](=O)[O-])c2)c1", "Potency": "inconclusive [inhibitor, full curve, poor fit]"}
{"smiles": "COc1cccc(CNC(=O)CN2C(=O)NC(Cc3ccccc3)(c3ccccc3)C2=O)c1", "note": "(configuration not stated)", "Potency": "inconclusive [inhibitor, single point]"}
{"smiles": "O=C(CSc1nnc2ccc3ccccc3n12)c1ccc(F)cc1", "activity change, negative = inhibition": "inactive: 36.6%"}
{"smiles": "Cn1c(CN2CCOCC2)nnc1SCC(=O)Nc1ccc([N+](=O)[O-])cc1O", "Potency": "inconclusive [inhibitor, single point]"}
{"smiles": "Nc1cc(N)nc(SCC(=O)Nc2cccc(S(=O)(=O)N3CCCCC3)c2)n1", "Potency": "inconclusive [inhibitor, single point]"}
{"smiles": "Cc1ccc(S(=O)(=O)N2CCN(CCOc3c(Cl)cccc3Cl)CC2)cc1C", "Potency": "inconclusive [inhibitor, single point]"}
{"smiles": "CC1CCC(NC(=O)CSc2nncs2)CC1", "note": "(configuration not stated)", "Potency": "inconclusive [inhibitor, single point]"}
{"smiles": "C/C(=N\\Nc1nc(C)cc(-c2ccccc2)n1)c1ccc(C)o1", "Potency": "active: 13.1 µM"}
{"smiles": "CC(C)(C)OC(=O)N1CCN(c2ccc(NC(=O)c3ccco3)cc2)CC1", "Potency": "active: 7.38 µM"}
{"smiles": "CCCCCCCCCCn1ccc(=N)cc1", "Potency": "active: 0.208 µM"}
{"smiles": "CCCN(CC(=O)Nc1ccccc1C)C(=O)c1ccc(-c2ccc([N+](=O)[O-])cc2)o1", "Potency": "inconclusive [inhibitor, single point]"}
{"smiles": "Cc1ccc(CN2C(=O)C(C)Nc3ncnc(N4CCN(c5ccccn5)CC4)c32)cc1", "note": "(configuration not stated)", "Potency": "active: 11.7 µM"}
{"smiles": "CCC(C)c1ccc(NC(=O)C2=CC=CN3CCS(=O)(=O)N=C23)cc1", "note": "(configuration not stated)", "activity change, negative = inhibition": "inactive: 136%"}
{"smiles": "Cc1cccc(OCCOC(=O)c2c(-c3ccccc3)noc2C)c1", "Potency": "inconclusive [inhibitor, single point]"}
{"smiles": "Cc1ccc(S(=O)(=O)NCC(=O)NC2CCCC2)cc1", "Potency": "inconclusive [inhibitor, single point]"}
{"smiles": "Cc1ccc(Oc2ccc(Cl)cc2NC(=O)c2cnccn2)cc1", "Potency": "inconclusive [inhibitor, single point]"}
{"smiles": "CC1CCc2c(C(=O)OCC(=O)Nc3cccc(S(=O)(=O)N4CCCCCC4)c3)csc2C1", "note": "(configuration not stated)", "activity change, negative = inhibition": "inactive: 29.9%"}
{"smiles": "CCn1nc(C)cc1C(=O)NC1CCCc2c1cnn2-c1ccc(C)c(C)c1", "note": "(configuration not stated)", "Potency": "inconclusive [inhibitor, partial curve, poor fit]"}
{"smiles": "C=CCOc1ccc(/C=N/NC(=O)CN2CCOCC2)cc1OCC", "activity change, negative = inhibition": "inactive: 1.3%"}
{"smiles": "Cc1ccc(C(OCC(O)CN2CCCCC2CO)c2ccccc2)cc1", "note": "(configuration not stated)", "Potency": "inconclusive [inhibitor, partial curve]"}
{"smiles": "CCN(Cc1cc(=O)oc2cc(C)ccc12)c1ccccc1", "Potency": "inconclusive [inhibitor, partial curve]"}
{"smiles": "Cc1ccccc1NS(=O)(=O)c1cccc(C(=O)Nc2cccc(C(=O)O)c2)c1", "activity change, negative = inhibition": "inactive: 4.27%"}
{"smiles": "Cn1c(C(=O)NCCN2CCc3ccccc3C2)cc2c(=O)[nH]c3ccccc3c21", "Potency": "active: 13.1 µM"}
{"smiles": "Cn1cc(S(=O)(=O)Nc2ccc(Cl)cc2Cl)c(=O)n(C)c1=O", "Potency": "inconclusive [inhibitor, full curve, poor fit]"}
{"smiles": "COc1ccc(O)c(/C=N/NC(=O)c2ccc(N3CCCC3=O)cc2)c1", "Potency": "inconclusive [inhibitor, single point]"}
{"smiles": "CCCCn1c(N)c(N(CCOC)C(=O)c2cccc(OCc3ccccc3)c2)c(=O)[nH]c1=O", "Potency": "inconclusive [inhibitor, single point]"}
{"smiles": "CCOc1ccc(Nc2nc3c(c(=O)[nH]2)CCC3)cc1", "Potency": "inconclusive [inhibitor, single point]"}
{"smiles": "CCn1c(N2CCN(CC(=O)c3c(C)n(C)c4ccc(OC)cc34)CC2)nc2c1c(=O)[nH]c(=O)n2C", "Potency": "inconclusive [inhibitor, partial curve]"}
{"smiles": "CCN(C(=O)COC(=O)c1cc(C)n(-c2ccc(F)cc2)c1C)C1CCS(=O)(=O)C1", "note": "(configuration not stated)", "Potency": "inconclusive [inhibitor, single point]"}
{"smiles": "Cc1ccc(N(Cc2ccccc2)C(=O)c2ccc(Cl)c(S(=O)(=O)N3CCOCC3)c2)cc1", "Potency": "active: 13.1 µM"}
{"smiles": "O=C(NCCC(=O)N1CCN(S(=O)(=O)c2ccccc2Cl)CC1)Nc1ccccc1", "Potency": "inconclusive [inhibitor, single point]"}
{"smiles": "Cc1ccc(OS(=O)(=O)c2ccc(N3C(=O)CCC3=O)cc2)cc1", "activity change, negative = inhibition": "inactive: 22.1%"}
{"smiles": "CC(C)=CCc1c(O)c(CC=C(C)C)c2c(c1O)C(=O)CC(c1ccc(O)cc1)O2", "note": "(configuration not stated)", "Potency": "inconclusive [inhibitor, partial curve, poor fit]"}
{"smiles": "CCN(CC)CCN(Cc1cc2cc(C)ccc2[nH]c1=O)C(=S)Nc1ccccc1", "Potency": "inconclusive [inhibitor, single point]"}
{"smiles": "C#CC[N+](CC)(CC)CC#Cc1ccccc1", "Potency": "inconclusive [inhibitor, single point]"}
{"smiles": "CC1=CN2C(=N)/C(=C/c3ccc(Sc4ccc(C)cc4)o3)C(=O)N=C2S1", "Potency": "inconclusive [inhibitor, single point]"}
{"smiles": "COCCN(CC1CCCN(C2Cc3ccccc3C2)C1)C(=O)CSC", "note": "(configuration not stated)", "Potency": "inconclusive [inhibitor, partial curve, poor fit]"}
{"smiles": "CN(C)C(=O)CSc1nc2ccc(N3C(=O)c4ccccc4C3=O)cc2s1", "activity change, negative = inhibition": "inactive: 34.4%"}
{"smiles": "O=c1oc2ccccc2c(NCc2cccc(F)c2)c1[N+](=O)[O-]", "Potency": "inconclusive [inhibitor, single point]"}
{"smiles": "Cn1c(NC(=O)C2c3ccccc3Oc3ccccc32)cc(=O)n(C)c1=O", "Potency": "inconclusive [inhibitor, partial curve]"}
{"smiles": "CSCCC(=O)N1CCN(CC(=O)N2CCCC2)CC1", "activity change, negative = inhibition": "inactive: 13%"}
{"smiles": "O=C(c1cccn2c(=O)c3ccccc3nc12)N1CCC2(CC1)OCCO2", "Potency": "inconclusive [inhibitor, full curve, poor fit]"}
{"smiles": "C=CCNC(=O)/C=C/c1ccc(C(C)C)cc1", "Potency": "inconclusive [inhibitor, single point]"}
{"smiles": "Cc1ccc(OCCn2c(C3CC(=O)N(Cc4ccccc4)C3)nc3ccccc32)cc1", "note": "(configuration not stated)", "Potency": "inconclusive [inhibitor, partial curve]"}
{"smiles": "CCOC(=O)N/N=C(\\C)c1ccccc1OC(F)F", "Potency": "inconclusive [inhibitor, single point]"}
{"smiles": "CCN(CC(=O)Nc1ccc(NC(C)=O)cc1)C(=O)CCCOc1ccc(C(C)(C)C)cc1", "Potency": "inconclusive [inhibitor, partial curve, poor fit]"}
{"smiles": "CC(NS(=O)(=O)OCC(Cl)(Cl)Cl)c1ccc(Br)cc1", "note": "(configuration not stated)", "activity change, negative = inhibition": "inactive: 7.91%"}
{"smiles": "CCOc1cc(N2CCOCC2)c(OCC)cc1NC(=O)Cc1ccc(OC)c(OC)c1", "Potency": "active: 9.28 µM"}
{"smiles": "CC(C)c1ccc(NC(=O)Cn2cccc2C2=NC(c3ccccc3)CO2)cc1", "note": "(configuration not stated)", "Potency": "inconclusive [inhibitor, partial curve, poor fit]"}
{"smiles": "COc1cccc(CNCCc2c[nH]c3ccccc23)c1OCc1ccccc1", "Potency": "inconclusive [inhibitor, single point]"}
{"smiles": "COc1ccc(CCNC(=O)COC(=O)c2ccc(F)c(S(=O)(=O)N3CCOCC3)c2)cc1", "Potency": "inconclusive [inhibitor, single point]"}
{"smiles": "Cc1ccc(-c2nnc(Sc3nc4ccccc4o3)c3ccccc23)cc1", "Potency": "active: 11.7 µM"}
{"smiles": "CN1N=C2c3ccccc3CCC2C1c1ccc(Cl)cc1", "note": "(configuration not stated)", "Potency": "inconclusive [inhibitor, partial curve, poor fit]"}
{"smiles": "CCn1ccnc1CN(C)Cc1c(C(=O)N2CCCCCCC2)nc2ccc(Cl)cn12", "Potency": "inconclusive [inhibitor, single point]"}
{"smiles": "COC(=O)c1cccc(Nc2c3c(nc4ccccc24)CCC3)c1", "Potency": "active: 11.7 µM"}
{"smiles": "Cc1cc2c3c([nH]c2cc1S(=O)(=O)NCCCOC(C)C)CC(C)(C)CC3=O", "Potency": "inconclusive [inhibitor, single point]"}
{"smiles": "CC1(OC(=O)CCc2ccccc2)C(=O)C=C2C=C(c3ccc(C#N)cc3)N(CCc3ccccn3)C=C2C1=O", "note": "(configuration not stated)", "Potency": "inconclusive [inhibitor, single point]"}
{"smiles": "CN(C(=O)c1cc2ccccc2cc1O)C1CCCCC1", "Potency": "inconclusive [inhibitor, partial curve]"}
{"smiles": "COc1cccc2c(=O)n(CC(=O)NC3CCCC3)ccc12", "activity change, negative = inhibition": "inactive: 39.8%"}
{"smiles": "O=C(CSC1=Nc2ccccc2C2=NC(CC(=O)NC3CCCCC3)C(=O)N12)NCc1ccco1", "note": "(configuration not stated)", "Potency": "inconclusive [inhibitor, single point]"}
{"smiles": "CCOc1ccc(CCNC(=O)CCn2cccc2)cc1OCC", "Potency": "inconclusive [inhibitor, single point]"}
